This note sets out measurements from the antibiotic and cytotoxicity screens of Wong et al. (2023).

Some of the results follow.

The test system of the experiment is HepG2. The experiment is described as follows: cytotoxicity call (relative viability < 0.9). As to conditions: 10 µM.
Consider `Cc1ccc(S(=O)(=O)N[C@H](C)C(=O)O)cc1`, for which the cytotoxicity call is “inactive”.

For the compound `O=c1c(-c2ccc(O)cc2)coc2cc(O)cc(O)c12`, the cytotoxicity call is “inactive”. Turning to `C[C@H](CO)N1C[C@H](C)[C@@H](CN(C)Cc2ccc(Cl)c(Cl)c2)Oc2ccc(NC(=O)Cn3cnnn3)cc2C1=O`, the cytotoxicity call is “inactive”. Regarding `C[C@H](CO)N1C[C@H](C)[C@@H](CN(C)Cc2ccc(Oc3ccccc3)cc2)Oc2ccc(NC(=O)Cc3ccccc3)cc2C1=O`, the cytotoxicity call was “inactive”. Turning to `C[C@H]1CN([C@@H](C)CO)C(=O)Cc2cc(NS(=O)(=O)c3ccc(F)cc3)ccc2O[C@H]1CN(C)CC1CC1`, the cytotoxicity call is “inactive”. The entry for `Cc1ccc2c(Cl)cc(Cl)c(O)c2n1` is “inactive”; for `C[C@H](O)C#Cc1ccc2c(c1)O[C@@H](CN(C)C(=O)Nc1ccccc1)[C@H](C)CN([C@@H](C)CO)S2(=O)=O` it is “inactive”. Next, `Cc1onc(C(=O)O)c1[N+](=O)[O-]`: “inactive”. Next, `C[C@H]1CN([C@@H](C)CO)C(=O)c2cc(C3=CCCCC3)cnc2O[C@@H]1CN(C)S(=O)(=O)c1cn(C)cn1`: “inactive”; `CC(C)C[C@@H]1NC(=O)[C@@]23C(=O)N[C@@H](Cc4ccccc4)[C@H]2[C@H](C)[C@@]2(C)O[C@H]2[C@@H]3/C=C/C/C=C\CNC(=O)[C@@H](C)NC1=O`: “inactive”. Take `C[C@@H]1CN([C@@H](C)CO)C(=O)c2cccc(NC(=O)c3cnccn3)c2O[C@@H]1CN(C)Cc1ccc(C(=O)O)cc1`: the cytotoxicity call was “inactive”. Take `C=CCNC1=C2C[C@@H](C)C[C@H](OC)[C@H](O)[C@@H](C)/C=C(\C)[C@H](OC(N)=O)[C@@H](OC)/C=C\C=C(/C)C(=O)NC(=CC1=O)C2=O`: the cytotoxicity call was “active”.

`CC(=O)n1cc([C@@H]2C=C(C(=O)N3CCN(Cc4ccccc4)CC3)O[C@H](OCc3ccc(CO)cc3)C2)c2ccccc21`: the cytotoxicity call is “inactive”. For the compound `C[C@@H]1CN([C@H](C)CO)C(=O)Cc2cc(NS(C)(=O)=O)ccc2O[C@H]1CN(C)C`, the cytotoxicity call is “inactive”. For `O=C(C[C@@H]1C[C@@H]2c3cc(NC(=O)NC4CCCC4)ccc3O[C@@H]2[C@@H](CO)O1)NCc1ccc(Oc2ccccc2)cc1`, the cytotoxicity call is “inactive”.

On to `COCC(=O)Nc1ccc2c(c1)OC[C@H](C)N(C(=O)c1ccccc1F)C[C@@H](C)[C@H](OC)CN(C)C2=O`, for which the cytotoxicity call is “inactive”.

`C[C@@H]1O[C@H]2Oc3c(-c4ccc(O)c(O)c4)oc4cc(O)c(c(O)c4c3=O)-c3cc(ccc3O)/C=C\C(=O)OC[C@H]3O[C@@H](O[C@H]([C@H]1O)[C@H]2O)[C@H](O)[C@@H](O)[C@@H]3O`: the cytotoxicity call is “inactive”. Take `C[C@@H]1CN([C@@H](C)CO)C(=O)c2cc(NC(=O)Nc3ccc4c(c3)OCO4)ccc2O[C@@H](C)CCCCO[C@@H]1CN(C)C(=O)Nc1ccccc1`: the cytotoxicity call was “inactive”. The entry for `C[C@@H]1CN([C@H](C)CO)C(=O)CCCn2nncc2CO[C@@H]1CN(C)S(=O)(=O)c1cccc(C#N)c1` is “inactive”. On to `CCn1c2ccc(Cl)cc2c2cc(Cl)ccc21`, for which the cytotoxicity call was “inactive”. Next, `C[N+]1(CCCCC[N+]2(C)CCCC2)CCCC1.O=C([O-])C(O)C(O)C(=O)O.O=C([O-])C(O)C(O)C(=O)O`: “inactive”.

As to `CNC(=O)[C@H]1C[C@@H]2CN(c3ncc(F)cn3)C[C@H]1O2`, the cytotoxicity call is “inactive”. The entry for `N=C(N=C(N)N)NCCc1ccccc1` is “active”; for `Cc1noc(C)c1NC(=O)N(C)C[C@H]1OCCCC[C@@H](C)Oc2ccc(NS(=O)(=O)c3ccccc3)cc2C(=O)N([C@@H](C)CO)C[C@H]1C` it is “inactive”; for `C[C@H]1CN([C@@H](C)CO)C(=O)c2cc(NC(=O)Nc3cccc4ccccc34)ccc2O[C@H]1CN(C)S(=O)(=O)c1ccccc1` it is “inactive”. The entry for `CCOC(=O)c1c[nH]c(=S)[nH]c1=O` is “inactive”. The entry for `O=C(C[C@@H]1C[C@H]2c3cc(NC(=O)C4CCOCC4)ccc3O[C@H]2[C@H](CO)O1)NCc1ccc2c(c1)OCO2` is “inactive”; for `C[C@H]1CN([C@@H](C)CO)C(=O)Cc2cc(NS(=O)(=O)c3cccs3)ccc2O[C@H]1CN(C)CC1CC1` it is “inactive”. In the case of `C[C@H](CO)N1C[C@H](C)[C@@H](CN(C)Cc2ccc(Oc3ccccc3)cc2)OCc2ccccc2-c2c(n(C)c3ccccc23)C1=O`, the cytotoxicity call was “inactive”. The entry for `CCC(C)(C)NC(=N)NC#N` is “inactive”; for `NNC(=O)CCCCC(=O)NO` it is “active”; for `CN(C)CCCNC(=O)C[C@H]1CC[C@H]2[C@@H](COC[C@H](O)CN2S(=O)(=O)c2ccccc2)O1` it is “inactive”.

As for `COc1ccc(S(=O)(=O)N(C)C[C@H]2Oc3ccc(NC(=O)NC(C)C)cc3CC(=O)N([C@H](C)CO)C[C@@H]2C)cc1`, the cytotoxicity call was “inactive”.
